The whole screen tested about 52,000 compounds, of which about 1,700 (3.3%) were called active. No stated cut-off is given here; in the data, active means survival mostly below about 52% (no sharp cut-off); inactive means mostly above about 56%. The list shows a part of the results.
Test system: Wild type
Assay: growth inhibition of S. aureus wild type versus tarO mutant, primary screen, teichoic acid synthesis inhibitors, RN4220, OD600 (AID 463173)
Details: S. aureus RN4220 wild type/DeltatarO growth, OD600, 18 h, active compounds read low, screened at 18.75 µg/mL (by protocol)

| Compound | survival |
| --- | --- |
| CCOc1ccc(NC(=O)Cn2c(=O)n(Cc3ccccc3)c(=O)c3sc4ccccc4c32)cc1 | inactive: 78% |
| N#Cc1ccc(-c2cccnc2)n(CC(=O)NCc2ccccc2)c1=O | inactive: 122% |
| Cc1cc(C)cc(NC(=O)CN2C(=O)CSc3ccc(S(=O)(=O)N4CCCC4)cc32)c1 | inactive: 88% |
| Cc1cc(F)c(F)cc1C(=O)N1CCN(C)CC1 | inactive: 112% |
| CCOC(=O)c1c(NC(=O)CSc2cn(CCNC(=O)c3ccccc3OC)c3ccccc23)sc2c1CCCC2 | inactive: 88% |
| O=C(NCC1CCN(Cc2cccc(F)c2)CC1)c1cc2ccc3cccnc3c2[nH]1 | inactive: 65% |
| Nc1n[nH]c(-c2ccc(Cl)cc2)c1Cl | inactive: 119% |
| Cc1cc(CN2CCC(C)CC2)cc(C)c1O | inactive: 107% |
| Cc1nn(CC(=O)N2CCN(c3ccccc3)CC2)c(=O)c2cc3cc(F)ccc3n12 | inactive: 77% |
| CC1=C(c2ccc(C(C)C)cc2)S(=O)(=O)N=C1N1CCC(C(=O)NCc2ccco2)CC1 | inactive: 63% |
| CCOc1ccc(NC(=O)c2c(NC(=O)c3cccc(C)c3)sc3c2CCC3)cc1 | inactive: 130% |
| Cc1ccc(CNC(=O)Cn2c(=O)cc(-c3ccccc3)c3c(C)nn(C)c32)cc1 | inactive: 72% |
| COc1ccccc1N1CCN(S(=O)(=O)CCNC(=O)COc2ccc(F)cc2)CC1 | inactive: 124% |
| CCN(CC)CC(=O)Oc1ccc(NC2=NS(=O)(=O)c3ccccc32)cc1 | inactive: 100% |
| CS(=O)(=O)NCc1nnc(SCC(=O)NC2CCCCC2)n1-c1ccc(F)cc1 | inactive: 102% |
| COc1ccc(CCNc2ncnc3c2c(-c2ccccc2)cn3-c2cccc(Cl)c2)cc1OC | inactive: 97% |
| Cc1c(C(=O)NCCc2ccccc2)cccc1-n1cnc2cccnc21 | inactive: 70% |
| CCc1ccc(NC(=O)CC2C(=O)N(c3ccc(OC)cc3)C(=O)N2Cc2ccc(OC)cc2)cc1 (stereo unspecified) | inactive: 73% |
| COc1cc(SC)ccc1C(=O)NCc1ccccc1 | inactive: 98% |
| CCn1c(=O)c2sccc2n2c(CCCC(=O)N3CCN(c4cc(C)ccc4C)CC3)nnc12 | inactive: 98% |
| COc1ccccc1CNC(=O)C1CCN(S(=O)(=O)c2c(C)noc2/C=C/c2cccs2)CC1 | inactive: 89% |
| Cc1cc(=O)n(Cc2ccc(F)cc2Cl)c2c1c(C)nn2-c1ccccc1 | inactive: 70% |
| Cc1ccn2c(=O)c(C(=O)NCCc3ccc(S(N)(=O)=O)cc3)c(O)nc2c1 | inactive: 72% |

| Compound | survival |
| --- | --- |
| COc1ccc(S(=O)(=O)NC2(C(F)(F)F)NC(=O)N(CCc3ccc(OC)c(OC)c3)C2=O)cc1 (stereo unspecified) | inactive: 147% |
| CS(=O)(=O)NCCc1csc2nc(-c3ccccc3)nn12 | active: -4% |
| C/C(=N\NC(N)N)C1CCCCCCCCCCC1 | active: -1% |
| Cc1ccc(NCc2ccccc2-c2nnc(-c3ccccc3Cl)o2)cc1Cl | inactive: 79% |
| COc1ccc(N2C(=O)CSC23C(=O)N(CC(=O)NCc2ccccc2)c2ccccc23)cc1 (stereo unspecified) | inactive: 67% |
| COc1ccc(NC(=O)NCc2cccn2Cc2ccc(F)cc2)cc1OC | inactive: 77% |
| Cc1cc(Nc2ccccc2Cl)n2nc(-c3ccco3)nc2n1 | inactive: 78% |
| COc1cccc(NC(=O)N(Cc2cn(C)c3ccccc23)C2CCCCC2)c1 | active: 0% |
| COc1ccc(OC)c(NC(=O)c2c(NCc3ccc(C)o3)sc3c2CCCCC3)c1 | inactive: 86% |
| COc1cc(C2C(C(=O)OC(C)C)=C(C)N=C3SCCC(=O)N32)ccc1OCc1ccccc1 (stereo unspecified) | inactive: 89% |
| CC(=O)Nc1ccc(C(=O)N2CCCC2)cc1 | inactive: 98% |
| O=C(COCc1nc2ccccc2c(=O)[nH]1)NCC1CCCCC1 | inactive: 98% |
| CC12CC(C)(C)C(C#N)(C(N)=C1C#N)C(=C(C#N)C#N)N2 (stereo unspecified) | inactive: 100% |
| Cc1nc2ccn(Cc3cccnc3)c(=O)c2cc1C(=O)NCc1ccc(Cl)cc1 | inactive: 73% |
| COc1ccccc1CNC(=O)CCCn1nc(C)c2c(C)n(-c3ccc(C)cc3)nc2c1=O | inactive: 78% |
| CC(CNC(=O)c1ccc(CSc2nc3ccncc3n2Cc2cccc(F)c2)cc1)c1ccccc1 (stereo unspecified) | inactive: 81% |
| Cc1ccc(C)c(-c2nn(CC(=O)Nc3cc(F)ccc3F)c(=O)c3c2CCCC3)c1 | inactive: 75% |
| CCOc1cccc(CC(=O)N2CCc3c([nH]c4ccccc34)C2c2ccc(C)cc2)c1OCC (stereo unspecified) | inactive: 83% |
| COc1ccc(C(=O)Nc2ccc3c(c2)N(C2CCCC2)C(=O)c2ccccc2S3)cc1OC | inactive: 67% |
| COc1cc(C(=O)Nc2ccc(Cl)c(-c3nc4ncccc4o3)c2)cc(OC)c1OC | inactive: 155% |
| COC(=O)c1c(SC)nc2ccccc2c1OCc1ccc(C)cc1C | inactive: 64% |
| Cc1ccc2onc(CC(=O)Nc3cc(F)ccc3F)c2c1 | inactive: 80% |
| Cc1ccc(-c2cc(C(F)(F)F)n3nc(C(=O)Nc4sc5c(c4C#N)CCC(C)C5)cc3n2)cc1 (stereo unspecified) | inactive: 70% |

| Compound | survival |
| --- | --- |
| O=C(CSc1nnc2scc(-c3ccc(Cl)cc3)n12)Nc1ccccc1F | inactive: 65% |
| Cc1ccccc1CNC(=O)CCCn1c(=O)c2cccn2c2ccccc21 | inactive: 85% |
| O=C(Cn1cc(S(=O)(=O)N2CCN(c3ccccc3F)CC2)c2ccccc2c1=O)Nc1cccc(C(F)(F)F)c1 | inactive: 77% |
| N#Cc1c(/N=C/c2cccnc2)sc2c1CCC2 | inactive: 111% |
| CC1(C)CC(=O)C(C=NC2CC(C)(C)NC(C)(C)C2)=C(O)C1 | inactive: 101% |
| CC(=O)c1ccc(N2CCN(S(=O)(=O)c3cc(-c4onc(C)c4C)ccc3C)CC2)cc1 | inactive: 69% |
| Cc1cccc2c1-c1sc(C(=O)N3CCN(c4ccc(F)cc4)CC3)cc1CO2 | inactive: 66% |
| O=C(COc1ccc(S(=O)(=O)N2CCCC2)cc1)N1CCCC1 | inactive: 116% |
| O=C(NCCc1ccccc1)C(=O)NCC(c1cccnc1)N1CCN(c2ccccc2)CC1 (stereo unspecified) | inactive: 82% |
| COCCNC(=O)CN1C(=O)COc2ccc(S(=O)(=O)N3CCOCC3)cc21 | inactive: 85% |
| CC(C)N(C(=O)CSc1nnnn1Cc1ccccc1)C(C)C | inactive: 115% |
| CCc1ccccc1N(C)C(=O)Nc1cn(CC(C)C)c(=O)c2ccccc12 | inactive: 132% |
| C=Cc1ccc(CSc2nc(-c3ccccc3C)nc3c2Cc2c(CO)cnc(C)c2O3)cc1 | inactive: 80% |
| CCC1CCCCN1S(=O)(=O)c1ccc2c(c1)CCCN2C(C)=O (stereo unspecified) | inactive: 82% |
| CCn1cc(C(=O)OCC(=O)Nc2cccc(Cl)c2C)c(=O)c2ccc(C)nc21 | inactive: 70% |
| CCOc1ccc(CNC(=O)CCn2c(=O)c3cccn3c3cccnc32)cc1 | inactive: 93% |
| N#Cc1ccc(NC(=O)COCc2cc(-c3ccc4c(c3)OCO4)on2)cc1 | inactive: 75% |
| Cc1cc(N2CCN(C)CC2)nc2ccc(NC(=O)Nc3ccc(Cl)cc3)cc12 | inactive: 75% |
| COC(=O)c1scc(-c2ccc(C)cc2)c1S(=O)(=O)Nc1ccc(OC(F)(F)F)cc1 | inactive: 72% |
| CCOc1ccc(N2CC(NC(=O)c3ccc(S(=O)(=O)N4CCOCC4)cc3)CC2=O)cc1 (stereo unspecified) | inactive: 60% |
| O=C(CSc1nc(=O)n(Cc2ccco2)c2c1CCC2)NCc1ccccc1Cl | inactive: 74% |
| Cc1ccc(/C(C#N)=C\c2cccs2)cc1 | inactive: 124% |
| Cc1cc(=O)n2nc(N3CCC(C(=O)NCCCOC(C)C)CC3)sc2n1 | inactive: 90% |

| Compound | survival |
| --- | --- |
| Cc1nn(-c2ccc(F)cc2)c(-n2cccc2)c1C(=O)N1CCCCC1C (stereo unspecified) | inactive: 71% |
| Cc1cc(NC(=O)c2oc3c(c2C)-c2[nH]ncc2CC3)ccc1Br | active: 1% |
| O=C(CSc1nnc(CNC(=O)c2ccccc2)n1-c1ccc(F)cc1)Nc1ccccc1F | inactive: 84% |
| O=C(CC1NCCNC1=O)Nc1ccc(F)c(Cl)c1 (stereo unspecified) | inactive: 68% |
| COc1ccc(Nc2ncc(C(=O)Nc3ccc(F)cc3F)c3ccccc23)cc1 | inactive: 72% |
| CCCCOc1ccc(C(=O)Nc2sc3c(c2C(=O)OCC)CCCCC3)cc1 | inactive: 38% |
| COc1ccccc1N1CCN(S(=O)(=O)c2ccc3c(c2)CCCN3C(C)=O)CC1 | inactive: 49% |
| CCOCCCn1c(SCC(=O)Nc2ccc(F)cc2)nc2c(sc3ccccc32)c1=O | inactive: 121% |
| CCC(C(=O)Nc1cc(-c2cn3cccnc3n2)ccc1C)c1ccccc1 (stereo unspecified) | inactive: 81% |
| CCc1cccc(NC(=O)Cn2c(-c3ccc(F)cc3)cc(C(C)=O)c2C)c1 | inactive: 75% |
| O=C(c1ccc2c(c1)N(Cc1ccccc1Cl)C(=O)c1ccccc1S2)N1CCCC1 | inactive: 72% |
| CCc1ccccc1-n1c(SCC(=O)Nc2ccc(C)cc2)nc2n[nH]c(C)c2c1=N | inactive: 73% |
| CCCCNS(=O)(=O)c1ccc(NC(=O)c2c(-c3ccccc3)noc2C)cc1 | inactive: 130% |
| COc1ccc(CNC(=O)CSc2ncnc3nc[nH]c23)cc1 | inactive: 108% |
| Cc1ccccc1CNC(=O)CN1CCSc2ccccc21 | inactive: 71% |
| Nc1nc2nc(-c3ccccc3)cc(=O)n2[nH]1 | inactive: 59% |
| O=C(CC1CCCCC1)Nc1ccccn1 | inactive: 115% |
| COc1ccc(CCCC(=O)NN=Cc2ccco2)cc1 | inactive: 97% |
| Fc1ccc(CNc2nc(-c3ccc(Cl)cc3)cc(C(F)(F)F)n2)cc1 | active: -5% |
| COc1ccc(NC(=O)CN2CCCN(Cc3ccccc3)S2(=O)=O)cc1 | inactive: 72% |
| CCCCOC(=O)c1ccc(NC(=O)c2ccc3c(c2)CCCN3S(C)(=O)=O)cc1 | inactive: 113% |
| O=C(CSc1nc2ccccc2nc1Cc1ccc(Cl)cc1)N1CCCCC1 | inactive: 83% |

— PubChem BioAssay AID463173 (ICCB-Longwood Screening Facility, Harvard Medical School, 2010)
